The campaign covered roughly 310,000 compounds. About 2,200 (0.71%) showed an effect of 50% or more. The effect is printed as a negative number. This is one part of the list.
biological target: human ether-à-go-go-related gene (hERG) potassium channel (human, UniProt Q12809); assay: primary screen, population patch clamp on CHO cells stably expressing hERG
Sequence (Q12809 whole entry, looked up): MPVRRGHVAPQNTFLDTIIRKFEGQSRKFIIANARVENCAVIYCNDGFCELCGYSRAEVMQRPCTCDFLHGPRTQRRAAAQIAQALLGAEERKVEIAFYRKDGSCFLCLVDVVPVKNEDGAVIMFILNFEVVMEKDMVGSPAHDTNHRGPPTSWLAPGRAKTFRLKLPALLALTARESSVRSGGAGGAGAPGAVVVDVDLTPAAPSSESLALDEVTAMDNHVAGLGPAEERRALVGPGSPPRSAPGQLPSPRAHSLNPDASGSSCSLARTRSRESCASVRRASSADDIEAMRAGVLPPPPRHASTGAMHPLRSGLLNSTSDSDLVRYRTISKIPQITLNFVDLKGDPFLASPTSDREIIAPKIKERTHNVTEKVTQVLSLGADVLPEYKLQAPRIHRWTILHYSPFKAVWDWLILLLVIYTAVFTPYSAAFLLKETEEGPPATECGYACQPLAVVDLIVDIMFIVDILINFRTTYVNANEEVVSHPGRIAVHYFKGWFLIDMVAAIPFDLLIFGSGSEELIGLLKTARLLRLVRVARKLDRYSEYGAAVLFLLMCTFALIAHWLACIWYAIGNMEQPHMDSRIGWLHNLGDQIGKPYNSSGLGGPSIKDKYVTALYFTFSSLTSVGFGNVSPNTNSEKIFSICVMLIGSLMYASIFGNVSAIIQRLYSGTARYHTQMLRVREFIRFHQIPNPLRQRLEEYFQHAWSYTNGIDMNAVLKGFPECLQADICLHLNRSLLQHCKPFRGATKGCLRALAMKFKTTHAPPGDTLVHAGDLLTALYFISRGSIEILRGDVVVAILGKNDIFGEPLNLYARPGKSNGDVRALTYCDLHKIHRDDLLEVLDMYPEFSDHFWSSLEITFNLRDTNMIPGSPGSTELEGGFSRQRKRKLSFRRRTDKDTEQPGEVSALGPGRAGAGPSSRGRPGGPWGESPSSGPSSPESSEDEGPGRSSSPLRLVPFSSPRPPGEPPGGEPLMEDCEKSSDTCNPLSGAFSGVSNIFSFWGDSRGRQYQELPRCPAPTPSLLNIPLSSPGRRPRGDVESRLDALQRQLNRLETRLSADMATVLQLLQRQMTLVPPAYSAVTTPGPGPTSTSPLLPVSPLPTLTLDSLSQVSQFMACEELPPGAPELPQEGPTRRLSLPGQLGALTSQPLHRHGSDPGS

SMILES | hERG current change (%, negative = inhibition) at 1uM
COc1ccc(C(=O)NC(=S)NC2CCSC2=O)cc1 (centres unmarked) | -7.49%
OCC(O)CN1CCCC1 (centres unmarked) | 17.3%
COc1ccc(-c2nn(C)c3sc(C(=O)NCc4ccco4)cc23)cc1OC | 11.6%
C[NH+]1CCC2(CC1)C(C#N)=C(N)NC([S-])=C2C#N | -1.53%
COc1ccc(C)cc1-n1nnnc1SC/C(O)=C(\C#N)c1nc2ccccc2[nH]1 | 3.8%
COc1ccc(Nc2nc3ccccc3nc2NS(=O)(=O)c2cccs2)c(OC)c1 | 12.6%
CCc1nnc(NC(=S)Nc2ccccc2)s1 | 14.2%
O=C(NC1CCN(C(=O)C2CCCCC2)CC1)c1ccccc1 | 12.3%
Cc1ccc(-n2ncc3c2CC(C)(C)CC3NC(=O)CCc2ccncc2)cc1 (centres unmarked) | -35.8%
FC(F)(F)c1cc(Oc2ccc(Cl)cc2)nc(-c2ccccn2)n1 | 19%
CC(=O)Nc1ccc(S(=O)(=O)Nc2ccc(F)c([N+](=O)[O-])c2)cc1 | 13.5%
Cc1ccc(NC(=O)Nc2ccc3c(c2)OCO3)nc1 | 17.8%
CCN(CC)C(=O)C(C)N(C#N)c1nc(C)cc(C)n1 (centres unmarked) | 11%
COCC(=O)Nc1cc(C(=O)OC)cc(C(=O)OC)c1 | 15.6%
CN(CCOc1ccccc1)CC(O)COCc1ccccc1F (centres unmarked) | 0.0936%
O=C(Nc1ccccc1-c1ccccc1)c1ccccc1 | 15.4%
Cc1ccc(C(=O)NCCc2ccc(F)cc2)s1 | 11%
CC(c1ccccc1)n1c(Br)nc2c1c(=O)[nH]c(=O)n2C (centres unmarked) | 13%
CC(=O)Nc1nnc(SCC(=O)Nc2nc(C)cs2)s1 | 7.85%
CCOC(=O)C1CCCN(C(=O)c2cn(CC)c3ccc(S(=O)(=O)N4CCCC4)cc3c2=O)C1 (centres unmarked) | -1.19%
COCCn1nnnc1CN(CCc1ccccc1)Cc1cc2ccc(C)cc2[nH]c1=O | 3.83%
Cc1c(C#N)c(N=CN(C)C)c(C(=O)c2ccc(Br)cc2)n1-c1ccccc1 | 6.7%
CC(C)C(OC(=O)c1ccco1)C(=O)NCc1ccco1 (centres unmarked) | 9.76%
O=S(=O)(Nc1c(O)ccc2ccccc12)c1cccc2ccccc12 | 12.8%
Br.C1CN=C(NC23CC4CC(CC(C4)C2)C3)C1 | 7.47%
Cc1csc(N(C(=O)Cc2ccccc2F)c2ccccc2)n1 | 6.63%

Reference: PMC4336329 (PLoS ONE, 2015)
